In series [1] the test system is M. tuberculosis H37Rv. Put plainly: microbe, parasite or virus in culture. The format is cell-based, Mycobacterium tuberculosis. The note with it: for MIC90: Mycobacterium tuberculosis, H37RV, read-out: MIC90 Mtb in vitro.
Series [2] relates to Mtb-infected THP-1 macrophages. The series can be described thus: microbe, parasite or virus in culture. The series is classed as cell-based. To be noted: Mycobacterium tuberculosis, read-out: MIC50 Mtb ex vivo.
Series [3] has as its system M. marinum M^USA. Put plainly: microbe, parasite or virus in culture. The series is classed as cell-based, Mycobacterium marinum. To be noted: for MIC90: Mycobacterium marinum, read-out: MIC90 Mmar in vitro.
Series [4] deals with M. marinum-tdTomato yolk-infected zebrafish embryos. To be noted: in vivo.
Series [5] concerns M. marinum-tdTomato infected zebrafish embryos. The format is in vivo. To be noted: injected at 1 dpi.
Series [6] deals with M. marinum-tdTomato yolk-infected zebrafish embryos. The note with it: for Survival of M. marinum-infected embryos: waterborne, 25× to 400× MIC added at 1 dpi, survival at 4 dpi.
The subject of series [7] is Escherichia coli. The series can be described thus: microbe, parasite or virus in culture. The format is cell-based.
Series [8] has as its system Mycobacterium abscessus. Put plainly: microbe, parasite or virus in culture. The series is classed as cell-based. To be noted: Mycobacteroides abscessus.
The test system of series [9] is Mmar-R-TBA161-C (aspS R168G). The format is cell-based.
The test system of series [10] is M. marinum wild type transformed with aspS or mmpL13 expression vectors. The series can be described thus: microbe, parasite or virus in culture. The series is classed as cell-based. To be noted: for MIC90: Mycobacterium marinum.
Series [11] concerns THP-1 cell line. To be noted: human.
Series [12] has as its system Bacillus subtilis 168. Put plainly: MIC by optical density, Bacillus subtilis.
Series [13] deals with Klebsiella pneumoniae LMG20218. Put plainly: MIC by optical density, Klebsiella pneumoniae.
The subject of series [14] is Acinetobacter baumannii. Put plainly: MIC by optical density, Acinetobacter baumannii.
The test system of series [15] is E. coli GK1161434. To be noted: zebrafish, in vivo.
Series [16] relates to S. pneumoniae D39V. The format is in vivo. To be noted: 24 hpt.
Series [17] relates to S. pneumoniae. The series can be described thus: microbe, parasite or virus in culture. To be noted: Streptococcus pneumoniae, read-out: MIC90 S. pneumoniae.
The conditions of series [18]: cited from earlier work.
Setting [19] is: intravenous injection of 1× or 10× MIC.

≈ marks a conversion by molar mass, not a printed value. Like-named read-outs stand apart in the source and are kept apart here.

With `CSc1nc2oc3ccc(Cl)cc3c(=O)c2c(=O)n1C(C)C` [TBA161-D, 7-chloro-3-isopropyl-2-(methylsulfanyl)-chromeno[2,3-d]pyrimidine-4,5-dione], the MIC90 in series [1] and in [3] was over 20 µM in each case. Also, in series [2], the MIC50 is over 30 µM. For the same molecule, the “Bacterial load in infected embryos, dose-response” value (shortened to “Bacterial load in infected embryos”) in series [4] is reported as “all derivatives except TBA161-D showed a significant reduction”.

For `NC[C@H]1O[C@H](O[C@H]2[C@H](O)[C@@H](O[C@H]3O[C@H](CO)[C@@H](O)[C@H](N)[C@H]3O)[C@H](N)C[C@@H]2N)[C@H](O)[C@@H](O)[C@@H]1O` [kanamycin], the “Bacterial load after injection of the compound via the caudal vein” value in series [5] is on record as “significant decrease in the bacterial load”. The “Bacterial load (integrated red fluorescence) in infected embryos vs DMSO” value (from here on “Bacterial load … vs DMSO”) in series [4] is “did not reduce the bacterial load”. The “Survival of M. marinum-infected embryos” value in series [6] is “no activity”.

In the case of `O=c1c2cc(Cl)cc(Cl)c2oc2nc3n(c(=O)c12)CCCS3` [TBA161-C, 9,11-dichloro-3,4-dihydro-chromeno[2′,3′:4,5]pyrimido[2,1-b][1,3]thiazine-6,7-dione], the MIC90 in series [1] was 1.3 ± 0.7 µM (≈ 0.462 µg/mL); in series [3] it was 1.3 ± 0.1 µM (≈ 0.462 µg/mL); in series [7] it was over 80 µM; in [8], over 40 µM; in series [10] (96 h, read-out: MIC90, M. marinum overexpressing mutated aspS (aspSMtbF526L)), over 40 µM; in series [10] (read-out: MIC90, M. marinum with genome-integrated aspSMtbF526L) it was over 40 µM. Moreover, the MIC90 in [12], in [13], in series [14] and in series [14] (LMG01041) was over 80 µM throughout. The MIC50 in [2] stood at 1.7 ± 0.7 µM (≈ 0.604 µg/mL). Also, in series [9], the “MIC90 of resistant M. marinum strains compared to the parental strain” value is “more than tenfold higher”. In addition, in series [10] (4 days), the “Susceptibility of M. marinum overexpressing wild-type or mutated mmpL13 (P502R)” value is recorded as “did not affect the susceptibility”. Further, in [10] (aspSMtb), the “Increase of MIC90, M. marinum overexpressing wild-type aspS vs wild-type strain” value is on record as “fivefold”. Further, the “Protective efficacy (survival of infected embryos)” value in [6] (yolk infection with 1000 CFU, waterborne treatment from 1 dpi) was “highest protective efficacy”. The molecule also gave a TD50 in [11] of over 40 µM. Besides, the “Not cytotoxic up to” value in series [11] (3 days) was over 40 µM.

With `C=CC1=C(C(=O)O)N2C(=O)[C@@H](NC(=O)/C(=N\OCC(=O)O)c3csc(N)n3)[C@H]2SC1` [cefixime], the “Survival of E. coli-infected embryos” value in [15] was “dose-dependent survival”.

Regarding `O=c1c2cc(Cl)ccc2oc2nc3n(c(=O)c12)CCCS3` [TBA161, 9-chloro-3,4-dihydro-chromeno[2′,3′:4,5]pyrimido[2,1-b][1,3]thiazine-6,7-dione], the figures for the MIC90 in series [1] and in series [3] were 14.6 ± 7.3 µM (≈ 4.68 µg/mL) and 3.1 ± 0.6 µM (≈ 0.994 µg/mL), respectively. The MIC50 in [2] is 2.5 ± 1 µM (≈ 0.802 µg/mL). Besides, the “Bacterial load in infected embryos” value in series [4] is listed as “among the four most active compounds”.

For `O=C(O)c1ccc(Nc2nc(-c3cccs3)cs2)cc1O` [GSK93A], the “Activity against Mtb in vitro, fold lower” value in series [1] stood at 15 fold. For the same molecule, in [3], the “No activity against M. marinum in culture up to” value was over 40 µM. Further, in series [4] (casper), the Embryos surviving turned out to be 40%. Also, in series [4], the “Bacterial load in infected embryos” value is on record as “Neither GSK93A nor C1 showed activity” and the “Toxicity towards zebrafish embryos” value is listed as “toxic”.

As to `CO/N=C(\C(=O)N[C@@H]1C(=O)N2C(C(=O)O)=C(CSc3nc(=O)c(=O)[nH]n3C)CS[C@H]12)c1csc(N)n1` [ceftriaxone], the Zebrafish survival in series [16] (intravenous injection of 10× the MIC) is on record as 90%. Moreover, the results for the MIC90 in [7] (read-out: MIC90 E. coli) and in [17] were 0.19 µM (≈ 0.105 µg/mL) and 0.05 µM (≈ 0.0277 µg/mL), respectively.

Turning to `NNC(=O)c1ccncc1` [isoniazid], in series [18] (zebrafish, ref van Wijk et al., 2020b), the “Concentration in blood as share of the external drug concentration” value is given as 20%.

`CC(C)(O/N=C(\C(=O)N[C@@H]1C(=O)N2C(C(=O)[O-])=C(C[n+]3ccccc3)CS[C@H]12)c1csc(N)n1)C(=O)O` [ceftazidime] registered a Zebrafish survival in series [16] (setting [19]) of 100%. Also, in series [17], the MIC90 is 0.91 µM (≈ 0.497 µg/mL).

Turning to `CC(=O)NC[C@H]1CN(c2ccc(N3CCOCC3)c(F)c2)C(=O)O1` [linezolid], the “Bacterial load … vs DMSO” value in [4] is given as “did not reduce the bacterial load”. Besides, the “Survival of M. marinum-infected embryos” value in [6] is on record as “dose-dependent increase in zebrafish survival”.

With `Nc1nc(/C(=C/CC(=O)O)C(=O)N[C@@H]2C(=O)N3C(C(=O)O)=CCS[C@H]23)cs1` [ceftibuten], in series [15], the “Survival of E. coli-infected embryos” value is given as “dose-dependent survival”.

For `C[C@@H](O)[C@H]1C(=O)N2C(C(=O)O)=C(S[C@@H]3CN[C@H](C(=O)N(C)C)C3)[C@H](C)[C@H]12` [meropenem], the Zebrafish survival in [16] (setting [19]) is on record as 100%. Moreover, the MIC90 in [7] (read-out: MIC90 E. coli) worked out at 0.14 µM (≈ 0.0537 µg/mL); in series [17], 0.29 µM (≈ 0.111 µg/mL). Further, the “Survival of E. coli-infected embryos” value in [15] is “did not increase the survival”.

Turning to `CC(=O)Nc1ccc(O)cc1` [paracetamol], the “Blood concentration in the embryo as share of the external concentration in the fish water” value in series [18] (zebrafish embryo, ref Van Wijk et al., 2019b) is 10%.

Regarding `C[C@H]1COc2c(N3CCN(C)CC3)c(F)cc3c(=O)c(C(=O)O)cn1c23` [levofloxacin], the MIC90 in series [7] (read-out: MIC90 E. coli) amounted to 0.35 µM (≈ 0.126 µg/mL); in [17], 5.53 µM (≈ 2 µg/mL). Moreover, the “Bacterial load … vs DMSO” value in [4] was “did not reduce the bacterial load”. Also, in series [6], the “Survival of M. marinum-infected embryos” value is reported as “dose-dependent increase in zebrafish survival”. The “Survival of E. coli-infected embryos” value in series [15] is “dose-dependent survival”.

Turning to `[H]/N=C(/N)N[C@H]1[C@H](O)[C@@H](O)[C@H](O[C@@H]2O[C@@H](C)[C@](O)(C=O)[C@H]2O[C@@H]2O[C@@H](CO)[C@H](O)[C@@H](O)[C@@H]2NC)[C@@H](N/C(N)=N\[H])[C@@H]1O` [streptomycin], in [5], the “Bacterial load after injection of the compound via the caudal vein” value is on record as “significant decrease in the bacterial load”. In series [4], the “Bacterial load … vs DMSO” value was “did not reduce the bacterial load”. The “Survival of M. marinum-infected embryos” value in series [6] was “no activity”.

Values taken from PMC8713996, “An anti-tuberculosis compound screen using a zebrafish infection model identifies an aspartyl-tRNA synthetase inhibitor” (Disease Models & Mechanisms, 2021).
